This assay relates to Isolated rat adipocytes. Nature of the assay: glimepiride-induced redistribution of signaling proteins within DIGs. The note with it: compared to basal adipocytes; Fig. 5.

This is an account of results in patent EP1566447A1, “Glimepiride- and insulin-induced glycosylphosphatidylinositol-specific phospholipase C regulation” (priority 2004, dated 2005).

The structures appear in SMILES notation.

On to `CCC1=C(C)CN(C(=O)NCCc2ccc(S(=O)(=O)NC(=O)N[C@H]3CC[C@H](C)CC3)cc2)C1=O` [Glimepiride, glimepiride], for which the “losses of pp59^Lyn, Gce1 and 5'-Nuc at hcDIGs” value fell in the range of 70 to 90%.
